# Assay results taken from article PMC12350670 (2025).
# B1: recombinant human fibroblast activation protein (hFAP) (enzyme)
# chain: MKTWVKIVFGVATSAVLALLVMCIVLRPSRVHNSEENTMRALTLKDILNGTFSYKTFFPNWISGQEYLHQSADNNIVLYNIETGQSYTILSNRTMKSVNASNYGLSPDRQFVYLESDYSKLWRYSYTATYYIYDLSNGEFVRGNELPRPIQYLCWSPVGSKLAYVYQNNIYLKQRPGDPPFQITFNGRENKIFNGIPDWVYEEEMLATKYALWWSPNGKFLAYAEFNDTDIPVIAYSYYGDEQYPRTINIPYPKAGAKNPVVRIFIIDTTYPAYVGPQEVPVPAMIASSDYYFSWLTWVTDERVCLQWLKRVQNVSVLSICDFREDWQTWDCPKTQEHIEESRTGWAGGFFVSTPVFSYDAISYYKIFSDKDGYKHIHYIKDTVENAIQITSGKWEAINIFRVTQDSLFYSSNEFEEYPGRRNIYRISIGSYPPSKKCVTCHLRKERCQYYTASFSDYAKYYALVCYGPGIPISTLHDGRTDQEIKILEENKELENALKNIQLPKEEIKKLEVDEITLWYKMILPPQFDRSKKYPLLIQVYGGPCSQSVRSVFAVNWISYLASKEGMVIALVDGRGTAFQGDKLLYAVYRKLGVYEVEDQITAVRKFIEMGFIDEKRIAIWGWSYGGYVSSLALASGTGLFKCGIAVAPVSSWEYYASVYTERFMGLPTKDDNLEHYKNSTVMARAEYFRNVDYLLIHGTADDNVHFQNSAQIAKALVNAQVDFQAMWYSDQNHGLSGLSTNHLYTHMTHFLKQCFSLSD
# modifications: biotin (EZ-link NHS-PEG4-biotin) for BLI and ELISA
# Columns and labels:
# Experiment in all cases: BLI
# [1] = target: H17-Fc (anti-FAP VNAR H17 fused to the Fc of human IgG1) (nurse shark (Ginglyomostoma cirratum))
# [2] = target: H15-Fc (anti-FAP VNAR H15 fused to the Fc of human IgG1) (nurse shark (Ginglyomostoma cirratum))
# [3] = target: NGS2405-Fc (anti-FAP VNAR NGS2405 fused to the Fc of human IgG1) (nurse shark (Ginglyomostoma cirratum))
binder,measurement,setting,value
B1,Kd,[1],0.539 nM
same,Kd,[2],1.28 nM
same,Kd,[3],0.356 nM
